Source: the supplement of paper PMC10670038
Where “and” joins values, the source holds several entries; their conditions need not be identical. Equal entries are not always repeated. Structures can show the parent of a compound that is named as a salt. ± gives the standard deviation of the averaged measurements. In all, about 2,000 compounds were measured (“relative cell viability vs DMSO, compound alone”: median about 1.1, lowest 2% from about 0.29 on). The list shows a part of the results.

test system: TE10; assay: relative cell viability vs DMSO, compound alone (fraction); TE10 is an esophageal squamous carcinoma line; higher = less cytotoxic; settings: 2 µM; 48 h
Protocol: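 TE10 ESCC cells (1,000/well, 384-well plates) were treated with Selleck bioactive library compounds at 2 uM alone for 48 h. Viability was read by CellTiter-Glo and expressed relative to DMSO wells. Two technical replicates (A, B).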

Compound	relative cell viability
CC(C)Oc1ccc(C(=O)N[C@H](CNC(=O)CN(C)C)Cc2ccc(-c3cn4cccc([C@H](C)O)c4n3)cc2)cc1Cl	0.949 ± 0.027
CCCCCCCCCCCCCCCC(=O)O[C@@H]1[C@@H](O)[C@@H](O)[C@@H]([C@H](NC(=O)[C@@H]2C[C@@H](CCC)CN2C)[C@H](C)Cl)O[C@@H]1SC [Clindamycin palmitate HCl]	1.13 ± 0.025
CNc1cccc(CCOc2ccc3c(c2)CN(CC(F)(F)F)C(=O)[C@H](CC(=O)O)C3)n1	1.18 ± 0.089
CC(=O)Nc1ncc([N+](=O)[O-])s1 [Nithiamide]	1.29 ± 0.044
CCN=C1N[C@@H]2[C@@H](O)[C@H](O)[C@@H](CO)O[C@@H]2S1 [Thiamet G]	1.04 ± 0.037
C=CC(=O)Nc1ccc2ncnc(Nc3cccc(Br)c3)c2c1	1.04 ± 0.074
CCC(=O)c1c(O)cc(O)cc1O [Flopropione]	1.16 ± 0.03
O=C(/C=C\n1cnc(-c2cc(C(F)(F)F)cc(C(F)(F)F)c2)n1)NNc1ccccn1 [Verdinexor (KPT-335)]	0.3315 ± 0.0025
CC1Cc2ccccc2N1NC(=O)c1ccc(Cl)c(S(N)(=O)=O)c1 (stereo not drawn) [Indapamide]	1.09 ± 0.018
CCOCC(O)COc1ccc(NC(=O)CC[S+](C)C)cc1 (stereo not drawn) [Suplatast Tosylate]	0.962 ± 0.027
CN1CCN(CCOc2cc(OC3CCOCC3)c3c(Nc4c(Cl)ccc5c4OCO5)ncnc3c2)CC1 [Saracatinib (AZD0530)]	0.884 ± 0.14
O=C(/C=C/c1ccc(CN(CCO)CCc2c[nH]c3ccccc23)cc1)NO [LAQ824 (Dacinostat)]	0.0682 ± 0.006
Cc1nc(-c2cn3c(n2)-c2ccc(-c4cnn(C(C)(C)C(N)=O)c4)cc2OCC3)n(C(C)C)n1	0.53 ± 0.025
CC(C)(C)c1ccc(-c2nc3ccccc3[nH]2)cc1	0.3629 ± 0.0021
Cc1cccc(C#Cc2ccccc2)n1	0.754 ± 0.064
O=c1cc[nH]c(=S)[nH]1 [2-Thiouracil]	1.14 ± 0.12
CC(C)c1cc(-c2ccc(F)c3ccccc23)nc(N)n1	1.13 ± 0.03
O=C(NOC[C@H](O)CO)c1ccc(F)c(F)c1Nc1ccc(I)cc1F	0.92 ± 0.064
Cc1cc(C)c(/C=C2\C(=O)Nc3ccccc32)[nH]1 [Semaxanib (SU5416)]	1.11 ± 0.016
CC[C@H]1OC(=O)[C@H](C)[C@@H](O[C@H]2C[C@@](C)(OC)[C@@H](O)[C@H](C)O2)[C@H](C)[C@@H](O[C@@H]2O[C@H](C)C[C@H](N(C)C)[C@H]2O)[C@](C)(O)C[C@@H](C)[C@@H]2N[C@@H](COCCOC)O[C@H]([C@H]2C)[C@]1(C)O [Dirithromycin]	0.852 ± 0.15
O=C1CC2(CCCC2)CC(=O)N1CCCCN1CCN(c2ncccn2)CC1 [Buspirone HCl]	0.992 ± 0.012
COc1ccc(S(=O)(=O)N(C(C)=O)c2ccccc2/C=C/c2cc[n+]([O-])cc2)cc1	0.918 ± 0.058
Cc1c(F)cc(C(=O)NC2CC2)cc1-c1ccc(C(=O)NCC(C)(C)C)cn1	0.959 ± 0.18
O=C1c2ccc(Nc3ccc(F)cc3F)cc2CCc2ccc(OC[C@H](O)CO)cc21 [Skepinone-L]	1.1 ± 0.066
CCCNCC(O)COc1ccccc1C(=O)CCc1ccccc1 (stereo not drawn) [Propafenone HCl]	1.03 ± 0.022
COc1cc([C@@H]2c3cc4c(cc3[C@@H](O[C@@H]3O[C@@H]5CO[C@@H](C)O[C@H]5[C@H](O)[C@H]3O)[C@H]3COC(=O)[C@H]23)OCO4)cc(OC)c1O [Etoposide]	0.755 ± 0.018

Compound	relative cell viability
COc1ccccc1OCC(O)CN1CCN(CC(=O)Nc2c(C)cccc2C)CC1 (stereo not drawn) [Ranolazine 2HCl]	1.24 ± 0.027
COc1ccccc1OCC(O)CN1CCN(CC(=O)Nc2c(C)cccc2C)CC1 (stereo not drawn) [Ranolazine]	1.01 ± 0.025
CN(C)C(=S)NN=C(c1ccccn1)c1ccccn1	0.6013 ± 0.0038
C[C@H]1C[C@@H]2[C@H]([C@@H](O)C[C@@]3(C)[C@H]2CC[C@]3(O)C(=O)CO)[C@@]2(C)C=CC(=O)C=C12 [Methylprednisolone]	0.87 ± 0.053
COc1cc2c(Oc3ccc4[nH]c(C)cc4c3F)ncnc2cc1OCCCN1CCCC1 [Cediranib (AZD2171)]	1.02 ± 0.12
O=C(O)c1cc(-c2ccccc2)nc2ccccc12 [Cinchophen]	1.06 ± 0.052
CC(=O)O[C@]1(C(C)=O)CC[C@H]2[C@@H]3C[C@H](C)C4=CC(=O)CC[C@]4(C)[C@H]3CC[C@@]21C [Medroxyprogesterone acetate]	0.904 ± 0.067
Nc1nc2n[nH]nc2c(=O)[nH]1 [Azaguanine-8]	1.24 ± 0.016
CC(NC(=O)C(O)c1cc(F)cc(F)c1)C(=O)NC1C(=O)N(C)c2ccccc2-c2ccccc21 (stereo not drawn)	1.05 ± 0.019
CN(C)c1nc(N(C)C)nc(N(C)C)n1 [Altretamine]	1.18 ± 0.015
CCOC(=O)[C@H](CCc1ccccc1)N[C@H]1CS[C@H](c2cccs2)CN(CC(=O)O)C1=O [Temocapril HCl]	1.13 ± 0.031
COc1ccc(F)c(F)c1C(=O)c1cnc(NC2CCN(S(C)(=O)=O)CC2)nc1N	0.479 ± 0.012
O=S(=O)(O)c1cc(O)ccc1O [Ethamsylate]	1.1 ± 0.022
O=C1C[C@@H](c2ccc(O)cc2)Oc2cc(O)cc(O)c21 [Naringenin]	1.04 ± 0.077
CCC(=O)O[C@]1(C(=O)CCl)[C@@H](C)C[C@H]2[C@@H]3CCC4=CC(=O)C=C[C@]4(C)[C@@]3(F)[C@@H](O)C[C@@]21C [Clobetasol propionate]	0.99 ± 0.013
CC(=O)Nc1nc(C)c(-c2ccc(Cl)c(S(=O)(=O)NCCO)c2)s1	0.876 ± 0.03
COc1ccc(C2CNC(=O)C2)cc1OC1CCCC1 (stereo not drawn) [S- (+)-Rolipram]	1.088 ± 0.0016
COc1ccc(C2CNC(=O)C2)cc1OC1CCCC1 (stereo not drawn) [Rolipram]	1.11 ± 0.14
O=c1c(O)c(-c2ccc(O)cc2O)oc2cc(O)cc(O)c12 [Morin Hydrate]	1.09 ± 0.023
O=c1oc2ccccc2c(O)c1Cc1c(O)c2ccccc2oc1=O [Dicoumarol]	1.06 ± 0.02
CS(=O)(=O)N1CCc2c(-c3cnc(N)nc3)nc(N3CCOCC3)nc21	0.379 ± 0.015
Cc1nc(=O)c2cc(CN(C)c3ccc(C(=O)N[C@@H](CCC(=O)O)C(=O)O)s3)ccc2[nH]1 [Raltitrexed]	1.07 ± 0.086
COC(=O)CCSCc1ccc(-c2onc(C)c2NC(=O)OC(C)c2ccccc2Cl)cc1 (stereo not drawn)	1.045 ± 0.0031
CC(/C=C1\SC(=S)N(CC(=O)O)C1=O)=C\c1ccccc1 [Epalrestat]	0.815 ± 0.045
c1ccc(CNc2nc(NCc3ccccc3)c3ccccc3n2)cc1	1.01 ± 0.073
O=C1c2ccccc2C(=O)c2c1ccc(O)c2O [Alizarin]	1.0853 ± 0.001

Compound	relative cell viability
C[C@H](CCC(=O)O)[C@H]1CC[C@H]2[C@@H]3[C@H](O)C[C@@H]4C[C@H](O)CC[C@]4(C)[C@H]3CC[C@]12C [Chenodeoxycholic Acid]	0.915 ± 0.096
CC(C)CC(CC(=O)NO)C(=O)N[C@@H](Cc1ccc2ccccc2c1)C(=O)N[C@@H](C)C(=O)NCCN (stereo partly drawn)	1.04 ± 0.077
C=CC(=O)Nc1cccc(Oc2nc(Nc3ccc(N4CCN(C)CC4)cc3OC)ncc2Cl)c1	1.1468 ± 0.00085
O=C(/C=C/c1ccc(O)c(O)c1)OCCc1ccccc1 [Caffeic Acid Phenethyl Ester]	1.06 ± 0.038
COc1ccc([C@@H]2CC(=O)c3c(O)cc(O[C@@H]4O[C@H](CO)[C@@H](O)[C@H](O)[C@H]4O[C@@H]4O[C@@H](C)[C@H](O)[C@@H](O)[C@H]4O)cc3O2)cc1O [Neohesperidin]	1.17 ± 0.037
CC(=O)OCC(CCn1cnc2cnc(N)nc21)COC(C)=O [Famciclovir]	1.03 ± 0.093
CC[C@H](C)C(=O)O[C@H]1CCC=C2C=C[C@H](C)[C@H](CC[C@@H]3C[C@@H](O)CC(=O)O3)[C@H]21 [Mevastatin]	1.11 ± 0.022
Nc1cc(C(Cl)=C(Cl)Cl)c(S(N)(=O)=O)cc1S(N)(=O)=O [Clorsulon]	1.12 ± 0.092
Cc1ccccc1CN1C2=NCCN2C(=O)C2=C1CCN(Cc1ccccc1)C2 [TIC10 Analogue]	1.13 ± 0.054
C[C@@H]1CCN(C(=O)CC#N)C[C@@H]1N(C)c1ncnc2[nH]ccc12	1.1 and 1.05
C#CC[C@H](c1nc2cc(Cl)ccc2c(=O)n1Nc1ccccc1)N(CCCN)C(=O)c1cccc(Cl)c1F	0.982 ± 0.051
CCOC(=O)Nc1cc(-c2ccc(C)c(NS(C)(=O)=O)c2)nn2c(C)nnc12 [Bromosporine]	0.921 ± 0.015
C[C@@H]1COCCN1c1cc(C2(S(C)(=O)=O)CC2)nc(-c2cccc3[nH]ccc23)n1	0.71 ± 0.039
O=c1[nH]c(=O)n(C2CCCO2)cc1F (stereo not drawn)	1.29 ± 0.056
Cc1cc2c(F)c(Oc3ncnn4cc(OC[C@@H](C)OC(=O)[C@H](C)N)c(C)c34)ccc2[nH]1	0.998 ± 0.014
COc1ccc([C@]2(C#N)CC[C@@H](C(=O)O)CC2)cc1OC1CCCC1 [Cilomilast]	0.952 ± 0.058
O=C(NCCO)c1cccc(-c2cc(Nc3ccc(OC(F)(F)F)cc3)ncn2)c1	1.2 ± 0.053
COCC[n+]1c2c(n(Cc3cnccn3)c1C)C(=O)c1ccccc1C2=O [YM155 (Sepantronium Bromide)]	0.0556 ± 0.0047
O=S(=O)(O)NC1CCCCC1 [Cyclamic  acid]	1.18 ± 0.022
N=C(N)NC(=N)N1CCOCC1 [Moroxydine HCl]	1.19 ± 0.017
CC(=O)Oc1cccc2c1C(=O)c1c(OC(C)=O)cc(C(=O)O)cc1C2=O [Diacerein]	1.11 ± 0.023
CCN(CC)Cc1ccc2cc(COC(=O)Nc3ccc(C(=O)NO)cc3)ccc2c1 [Givinostat (ITF2357)]	0.306 ± 0.036
CC(C)(C#N)c1ccc(N2C(=O)OCc3cnc4ccc(-c5cnc6ccccc6c5)cc4c32)cc1	0.71 ± 0.068
CC(C)C[C@@H](C=O)NC(=O)[C@H](CC(C)C)NC(=O)[C@H](CC(C)C)NC(=O)OCc1ccccc1	0.0786 ± 0.0013
CN(C)CCc1c[nH]c2ccc(Cn3cncn3)cc12 [Rizatriptan Benzoate]	1.031 ± 0.0057
O=C(c1ccc(C(=O)N2CCC(N3CCCC3)CC2)c(Nc2ccccc2)c1)N1CCC(N2CCCC2)CC1	1.15 ± 0.046
